# Assay results taken from PubChem BioAssay (Tox21).
# This list was built around the results that the source calls inconclusive (neither active nor inactive); the mix of calls is not that of the screen. Potencies of inconclusive entries are left out as doubtful fits. Activity calls are given as the source filed them. Calls come from the whole dose curve; as a rule, active = well fitted curve in the direction sought with a large enough effect in the repeat runs; inconclusive = weak or mixed curves; inactive = no such curve, though single readings can be large; an effect the other way counts as inactive or inconclusive. *1 amine or outer side, *2 acyl side, *3 side chain or, on linkers, in order; H or OH if unused. Where a SMILES comes first, the peptide text is derived from it. Bridges are numbered along the chain shown (N, C = ends). Roman numbers before positions name the chains, in order. [ ]: non-standard residue; d: D form. Actinocin(9to1) = Cc1c2oc3c(C)ccc(C(=O)[*:1])c3nc-2c(C(=O)[*:2])c(N)c1=O; NMeV = CN[C@H](C(=O)O)C(C)C; Sar = CNCC(=O)O
# Assay: A CellTox Green Cytotoxicity Assay to monitor cytotoxicity in HepG2 cells - 8 hour (AID 1224890); note: nearly all actives have a fitted effect of over 45% in size
# Settings: CellTox Green fluorescence; series mostly up to 76.8 µM; cytotoxicity increase: at the top concentration
# Method in brief: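 Fluorescent DNA-binding dye, 600 HepG2 cells/well, 5 h preincubation then compound in DMSO; same plates read at 0–40 h, 37 C.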
# % is set by controls: 0 for no effect and ±100 for the full control effect; potency is the fitted concentration of half-maximal effect; tags give direction and shape of the fitted curve.
SMILES,Potency,cytotoxicity increase
C[n+]1c2cc(N)ccc2cc2ccc(N)cc21 (tested in a mixture with another compound),active: 23.9 µM,
O=C(Nc1ccc(S(=O)(=O)N2CCOCC2)cc1)c1cc(Cl)ccc1NS(=O)(=O)c1ccc(Cl)s1,active: 26.8 µM,
O=c1[nH]sc2cc(Cl)ccc12,"inconclusive [activator, single point]",
Nc1ccc(O)cc1,"inconclusive [activator, single point]",
c1ccc(CCCc2ccncc2)cc1,"inconclusive [activator, partial curve]",
CCCCN(CCCC)CCC(O)c1cc2c(Cl)cc(Cl)cc2c2cc(C(F)(F)F)ccc12 (stereo not drawn),,inactive: 0.0877% [at 35.3 µM]
CN(C/C=C/c1ccccc1)Cc1cccc2ccccc12,active: 23.9 µM,

# Assay: qHTS assay to identify small molecule antagonists of the estrogen receptor alpha (ER-alpha) signaling pathway using the BG1 cell line in the presence of 0.1 nM 17-beta-estradiol - cell viability counter screen (AID 1259241); note: nearly all actives have a fitted effect of over 40% in size
# Settings: VM7Luc4E2 (BG1) viability, CellTiter-Fluor protease, 22 h, 0.1 nM estradiol agonist added; series mostly up to 92.4 µM; activity change, negative = cytotoxicity: at the top concentration
# Method in brief: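 VM7Luc4E2 cells (endogenous full-length ER-alpha, 4xERE-luciferase), cultured 5 days in charcoal-stripped serum, exposed to compounds with 0.1 nM 17beta-estradiol (final) for 22 hr at 37C. Viability read in same wells as live-cell protease fluorescence after 30 min.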
SMILES,Potency,"activity change, negative = cytotoxicity"
"Cc1c2oc3c(C)ccc(C(=O)N[C@@H]4C(=O)N[C@H](C(C)C)C(=O)N5CCC[C@H]5C(=O)N(C)CC(=O)N(C)[C@@H](C(C)C)C(=O)O[C@@H]4C)c3nc-2c(C(=O)N[C@@H]2C(=O)N[C@H](C(C)C)C(=O)N3CCC[C@H]3C(=O)N(C)CC(=O)N(C)[C@@H](C(C)C)C(=O)O[C@@H]2C)c(N)c1=O (I: T[dV]P[Sar][NMeV] / II: T[dV]P[Sar][NMeV]; ester I:1-I:C, II:1-II:C; linker I:N-II:N via Actinocin(9to1))","inconclusive [cytotoxic, partial curve]",
O=C(Nc1cccc(Cl)c1)OCC#CCCl,active: 61.1 µM,
CC(C)c1nc(CN(C)C(=O)N[C@H](C(=O)N[C@@H](Cc2ccccc2)C[C@H](O)[C@H](Cc2ccccc2)NC(=O)OCc2cncs2)C(C)C)cs1,"inconclusive [cytotoxic, partial curve]",
Oc1c(I)cc(Cl)c2cccnc12,"inconclusive [cytotoxic, single point]",
CC(C)(C)C1CCC(CC2=C(O)c3ccccc3C(=O)C2=O)CC1 (stereo not drawn),active: 29.8 µM,
C[n+]1c2cc(N)ccc2cc2ccc(N)cc21 (tested in a mixture with another compound),"inconclusive [rising, partial curve]",
CN1CCCN(C(c2ccccc2)c2ccc(Cl)cc2)CC1 (stereo not drawn),"inconclusive [cytotoxic, partial curve]",
CCC(=O)O[C@H]1[C@H](O[C@@H]2[C@@H](C)[C@H](O[C@H]3C[C@@](C)(OC)[C@@H](O)[C@H](C)O3)[C@@H](C)C(=O)O[C@H](CC)[C@@](C)(O)[C@H](O)[C@@H](C)C(=O)[C@H](C)C[C@@]2(C)O)O[C@H](C)C[C@@H]1N(C)C,"inconclusive [cytotoxic, partial curve]",
c1ccc(CCCc2ccncc2)cc1,,inactive: 0.669%
O=[N+]([O-])c1cc(C2CCCCC2)c(O)c([N+](=O)[O-])c1,active: 27.2 µM,
CN(C/C=C/c1ccccc1)Cc1cccc2ccccc12,,inactive: -12.4% [at 42.5 µM]
